Results reported in paper PMC3681933.
No constants are given. Whether binding was seen depends on the method and setting. In cells and extracts the contact can be indirect. Some entries that bind do so weakly or less than the wild type. Tags and fused reporters may be left off the sequences shown.

Amino acid sequences for entries named in this document (tags omitted).
UniProt P19073: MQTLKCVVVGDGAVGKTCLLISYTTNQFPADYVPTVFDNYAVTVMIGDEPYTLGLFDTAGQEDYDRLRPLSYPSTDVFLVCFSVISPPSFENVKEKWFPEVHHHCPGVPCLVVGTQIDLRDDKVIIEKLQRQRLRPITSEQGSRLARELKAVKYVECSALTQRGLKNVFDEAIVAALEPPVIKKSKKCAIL

Columns and labels:
Experiment in all cases: pull-down; as a1, but in yeast strains that lack BOI1 and/or BOI2: JGY2425 (boi1Δ), JGY2349 (boi2Δ) or JGY2821 (boi1Δ boi2Δ); glutathione-Sepharose beads from cell lysates; anti-HA blot
[1] = target: T1, GST-Boi1 (S. cerevisiae) (UniProt P38041)
T1 sequence: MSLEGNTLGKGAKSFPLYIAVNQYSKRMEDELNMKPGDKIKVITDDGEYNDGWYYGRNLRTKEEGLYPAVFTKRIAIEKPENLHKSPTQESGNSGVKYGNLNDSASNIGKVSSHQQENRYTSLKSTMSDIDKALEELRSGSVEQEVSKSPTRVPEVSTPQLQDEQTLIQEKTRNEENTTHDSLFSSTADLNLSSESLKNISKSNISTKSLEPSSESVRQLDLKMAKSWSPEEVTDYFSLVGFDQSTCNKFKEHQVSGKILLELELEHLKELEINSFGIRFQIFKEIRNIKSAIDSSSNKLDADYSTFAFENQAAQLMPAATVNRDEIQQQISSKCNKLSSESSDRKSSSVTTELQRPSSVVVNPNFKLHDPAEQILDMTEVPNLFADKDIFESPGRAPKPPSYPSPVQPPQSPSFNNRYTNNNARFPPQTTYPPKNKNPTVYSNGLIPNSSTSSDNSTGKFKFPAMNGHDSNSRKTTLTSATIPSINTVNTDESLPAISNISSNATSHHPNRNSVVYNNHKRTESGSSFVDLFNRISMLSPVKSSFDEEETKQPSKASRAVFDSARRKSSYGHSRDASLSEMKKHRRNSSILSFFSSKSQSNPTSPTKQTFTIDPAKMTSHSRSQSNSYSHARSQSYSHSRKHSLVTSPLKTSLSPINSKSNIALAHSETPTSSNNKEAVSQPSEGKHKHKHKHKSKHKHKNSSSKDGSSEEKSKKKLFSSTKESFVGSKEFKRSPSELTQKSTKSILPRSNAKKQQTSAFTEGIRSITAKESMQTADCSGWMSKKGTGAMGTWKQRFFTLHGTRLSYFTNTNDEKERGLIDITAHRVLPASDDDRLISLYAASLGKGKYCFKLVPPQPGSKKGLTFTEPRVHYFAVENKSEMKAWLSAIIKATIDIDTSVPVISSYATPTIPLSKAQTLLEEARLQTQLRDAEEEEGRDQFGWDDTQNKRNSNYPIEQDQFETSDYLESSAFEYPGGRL

[2] = target: T2, GST-Boi1-C (aa 414-980) (S. cerevisiae) (UniProt P38041)
T2 sequence: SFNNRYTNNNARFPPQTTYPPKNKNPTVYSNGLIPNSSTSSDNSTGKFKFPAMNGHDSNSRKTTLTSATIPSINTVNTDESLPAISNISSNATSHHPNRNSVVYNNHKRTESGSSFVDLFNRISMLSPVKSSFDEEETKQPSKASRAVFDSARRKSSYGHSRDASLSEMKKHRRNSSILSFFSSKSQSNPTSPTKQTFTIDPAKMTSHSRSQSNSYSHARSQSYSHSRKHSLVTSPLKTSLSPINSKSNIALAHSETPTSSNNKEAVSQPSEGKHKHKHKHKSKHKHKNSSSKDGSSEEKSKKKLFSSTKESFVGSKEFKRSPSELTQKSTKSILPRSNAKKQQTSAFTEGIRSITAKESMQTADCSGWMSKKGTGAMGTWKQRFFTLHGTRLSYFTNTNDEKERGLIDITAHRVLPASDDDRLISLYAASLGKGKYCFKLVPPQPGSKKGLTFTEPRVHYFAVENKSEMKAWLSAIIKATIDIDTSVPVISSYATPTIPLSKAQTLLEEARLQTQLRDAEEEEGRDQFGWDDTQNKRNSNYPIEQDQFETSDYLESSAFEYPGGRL

[3] = target: T3, GST-Boi2-C (aa 459-1040) (S. cerevisiae) (UniProt P39969)
T3 sequence: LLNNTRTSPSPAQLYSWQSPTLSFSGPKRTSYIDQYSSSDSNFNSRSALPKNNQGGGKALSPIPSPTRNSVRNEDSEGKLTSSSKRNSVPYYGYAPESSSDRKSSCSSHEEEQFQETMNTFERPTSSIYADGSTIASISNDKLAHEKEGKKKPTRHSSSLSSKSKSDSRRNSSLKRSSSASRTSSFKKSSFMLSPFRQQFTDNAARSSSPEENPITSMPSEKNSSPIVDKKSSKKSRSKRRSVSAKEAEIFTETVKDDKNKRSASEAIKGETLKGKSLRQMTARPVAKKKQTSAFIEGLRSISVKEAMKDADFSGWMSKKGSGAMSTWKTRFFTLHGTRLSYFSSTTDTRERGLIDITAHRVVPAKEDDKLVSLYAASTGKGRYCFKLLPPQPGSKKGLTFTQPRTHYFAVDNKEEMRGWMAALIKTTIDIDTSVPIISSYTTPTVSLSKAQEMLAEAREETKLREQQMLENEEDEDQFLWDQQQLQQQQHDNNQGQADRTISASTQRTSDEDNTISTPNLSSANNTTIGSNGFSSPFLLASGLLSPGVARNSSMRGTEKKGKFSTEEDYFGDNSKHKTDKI

[4] = target: GST-Cdc42 (WT) (S. cerevisiae) (UniProt P19073)

Measured: binding

B1: Msb1 tagged with three copies of HA at its N-terminus (protein, UniProt P21339 1-1137)
chain: MNDMAKPLPTPPTAEIRKSRSNSPKKAQKTNLSPNKNQNNEKNVPRSNGRTKNEHNSMDDEEFEFFHQFSREKVKGVIHVITAELKEKGPDVEFLMIPFRPEQTNDKLLTLLNQLFPLGNGQPVNEKKQLRIVSKADVWTLFQCLKYIWCRLPNSEIIGWKSYLEFKFREEDKKFPRKSFLEIMPQCLASPNHASIVYDFFDLIISISSNSRVNKMSARKISKMCAIWAFSKQIPNSDIQDYDFESAAMKSFAPNNSIQDGLDQWIPASDAMFHLLLAFLRSFVPQDLESAKLPRTLKSLLFNNQYPPRKSTAYTSETILTIPLVTLKTDVFSRKPWQLLERCNDLLDFSDHDAFEAREDYALLKSLFRKKNTVEGISRKMSQESRRLMKAMSTKHSTFQPGWAPRECIENISHLKECIEVKRLDIDDYFIWTWLSSLSFEQTSEKKKIFGRSIILEFEFDGFKKWVVFQECDITLDYNKKGQLKKKTSAQSPTTEKELPPDDFELEDPPLSKSPTLSQTYKKFQAEVPQQSTVRRDSAPDNQGIYHTVISKNALTKNKHNVNLHSFEHKISKWNPLNNLRKKSGSNSSSSSFEEKSKDAPIREEYHTNKNHKSKKEERVLSQFSTLNPDEYQLPVIETGSSNFKIEIPELMYEHDDDDSDKLKNSQKRATDSAIEELNGMVEEMMINEPDDVKISITEAETFESLTKFDQYKPSNITDDDLQSSHSSAVHSLKLSTNTNDSCADSSKYTADRKLAEPRKISEESKVNDDSSSYYSPNINNLPASRMPSQPTYSNSDSKKAFTNESRLNVLQGAVSPSQQVTPKPYKNAPGDCVSPVQQKYYQNDRRNEMSPASAPVPPSAYSPARSPQFSTNSAGFKQNTINVPVGYNDPAHVLANQPHMTYRDQHNYPSHQQKQRPFQNNIVPPELKSRNQRADASPIPQHMVPVKQGVPNLPSNVPLYQQMERMNPNHQHPVNTYKVTQPPYHNNTTNAYGNSRAGNAHMLDGKWSNNPPQMVPKGVRPNQYPQQHVNRYSPQAQPVVPAEYYNGPPPMRAPPMMSHMVPAQEPIRYTAGANRRSFPQGMQQNAYSVPAQPMGAVNSEFYLPEAPQGNKLHGNINKRQERKKLYDNIRSGNFGI
binds: all assays above
